Data from the supplement of paper PMC5499739.
The full ranking holds about 16,000 sequences; the median of “Z-score” is about -0.37, and the highest 2% start at about 3.1. Some of the results follow.

system: RBM10 RRM1-ZnF-RRM2 (GST-tagged construct); assay: RNAcompete 7-mer binding Z-score; higher = stronger binding preference
How it was run: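 Each heptamer motif was given a one-sided Z-score for enrichment across the probes that contained it. GST-tagged RBM10 constructs (20 pmol) were combined with 1.5 nmol of a designed pool of 241 399 RNAs of up to 41 nt, transcribed from microarray-derived DNA templates. Binding took place in 1 ml Hepes pH 7.8 buffer containing KCl, NaCl, glycerol, DTT, BSA and glutathione Sepharose beads for 30 min at 4°C. After four 2-min washes at 4°C, bound RNA was identified by microarray hybridisation.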

Sequence	RNAcompete 7-mer binding Z-score
GGCGGGU	2.57
ACUGCAU	-0.683
UUGCUCC	-0.843
AGCUUUA	-0.657
CCUAAUG	-0.752
ACUUUUG	-0.887
UAAGGAA	1.66
CUUGACA	-0.774
CCUAUCG	-0.817
AGUCCGA	-0.53
CCAGCAA	-0.723
GCAUUCG	-0.493
UCUGGUC	-0.522
GGCCAUC	-0.639
AUUUACA	-0.606
AUUGUUU	-0.595
CCUCUAC	-0.919
GGACAUU	0.403
UGACGCC	-0.701
UUACUGC	-0.799
AAAAGCC	-0.551
CGUUCGG	-0.42
CAACAAU	-0.428
CAGGUUU	0.29

Sequence	RNAcompete 7-mer binding Z-score
AGGGCGA	2.91
AGCUGUC	-0.795
GGAAGAC	1.89
CUAUCUC	-0.828
GGGUUAG	4.04
UGAAUCC	-0.566
GCUCUAU	-0.632
CGCUUAG	-0.65
CGUACGU	-0.107
GCCAUGG	0.366
GGGGCGC	1.91
GGAGGUA	3.82
ACCUCAA	-0.788
UACUCGC	-0.548
AGAAGCU	-0.508
AUGUACA	0.0532
CCCAGCU	-0.657
GUGAAGG	3.69
UCCACCU	-0.857
UAUCUUU	-0.777
UAAGCGA	-0.238
AGUAAAU	-0.129
UAGGGCU	1.3
GUUGACC	-0.238

Sequence	RNAcompete 7-mer binding Z-score
AAAUUGA	-0.00512
CGUUUCA	-0.81
GCAUUUU	-0.956
ACACCAG	-0.406
CAAUUCA	-0.624
CCUCCCC	-0.694
AUGGCCU	-0.409
CCGGCUA	-0.632
UAGAAGA	0.348
CCAGUGC	-0.267
CAGCGCA	-0.231
UAGGGGU	3.84
CCGCAGA	-0.522
AGCCUGG	-0.46
GUACACA	-0.0452
GGCAGCC	-0.067
AUACAGU	0.243
UAAGGCG	1.64
UGCGCCU	-0.806
AGCGAAA	0.253
GGCCUUC	-0.734
GUGCUGA	0.294
GGUUCUC	-0.388
AACCAGG	1.17

Sequence	RNAcompete 7-mer binding Z-score
ACGUGAU	-0.0998
UGCACGU	-0.384
GGUGAUU	0.949
GGCCUCA	-0.737
AUCAGGC	0.37
UGCAGCA	-0.369
ACGGCCU	-0.617
UUGGGGA	2.27
AGGGUCC	0.654
AACAAAG	0.355
UCCGCGC	-0.657
ACGCACC	-0.694
UUCAGGG	0.993
CCAUACA	-0.61
AACGAGA	0.101
AAUGUGA	0.822
ACUUGUC	-0.989
AUGUUUA	-0.46
ACAAGCA	-0.122
GACGGCC	-0.34
AUUCAAA	-0.482
UUUUAAU	-0.551
GUCGUCC	-0.377
AUAUCCU	-0.639

Sequence	RNAcompete 7-mer binding Z-score
UCUCUAG	-0.694
UGUCGCC	-0.737
UGGAGCC	0.261
CGUAUCC	-0.679
AGCUCGG	0.0604
UAGCAAC	-0.282
AUGUCUA	-0.69
GUCUCCG	-0.522
AUUAGUC	-0.457
AGCGCUA	-0.395
UGUACCU	-0.766
GCAGCGU	0.264
GGUGUGA	2.4
CCGCCAG	-0.599
CUAACCA	-0.661
GCCGUGA	-0.114
CAACCGA	-0.573
UACUAGG	0.512
GUUUGAG	0.465
ACCCGAA	-0.799
GAUCGGC	-0.133
CGUGGAG	1.93
UCCCCUC	-0.471
CGGACCC	-0.246

Sequence	RNAcompete 7-mer binding Z-score
ACCGGUU	-0.34
UAGGUCC	0.0495
UCUACGG	-0.242
CCGACUG	-0.595
CACUUAG	-0.566
CCAUGUU	-0.825
UUUAGCU	-0.832
CCCCUAG	-0.395
CAACACG	-0.322
AAUGUAA	0.0969
UCUAAGA	-0.595
AUAAGUA	-0.0707
UCUACCA	-0.719
UGCGAGC	0.286
AAUCUAC	-0.639
UAUCAAG	-0.147
UACCAGG	0.385
CCGGCCC	-0.763
AAGACAU	-0.118
CAUUUGA	-0.715
AGUAUGG	2.52
GGAAUAC	1.02
AAGCUGA	-0.205
AUGAUAU	-0.162

Sequence	RNAcompete 7-mer binding Z-score
AAUAACG	-0.103
AGAUGUC	-0.544
UCUGCUG	-0.759
UGUUUCA	-0.683
CGAGCAC	-0.195
CCUUCCC	-0.635
ACCGUUA	-0.726
UCCCAGA	-0.646
CACUCGC	-0.803
CCUAGGA	-0.0962
AGGGGGG	2.05
CCGCACA	-0.774
UUCCCUC	-0.752
ACAAGAA	-0.0634
GAAAUGC	0.0823
GAUUAGC	0.0786
AGCGAAU	0.385
GGGCAAU	2.09
UUACGGA	0.224
CAACAUG	-0.242
AGCUUAC	-0.544
CAUUAGG	0.538
UAUGGUC	0.312
GUACCAG	0.232

Sequence	RNAcompete 7-mer binding Z-score
GCCGUGC	-0.395
AACAAUC	-0.253
GGGGGGA	2.69
GGAUUAC	0.84
AGCUACC	-0.763
AUUUGCA	-0.639
CUAUGGU	-0.227
ACAAACU	-0.723
CUCUGGU	-0.719
CUCUUCC	-0.879
UUCAGAU	-0.453
ACAACAC	-0.304
GUCGUUC	-0.278
GAUAUUA	-0.129
ACACCGG	0.246
GGUCGCU	-0.111
ACUUCUU	-0.952
AACUCCG	-0.486
GCUGCUA	-0.599
ACGCCCA	-0.916
AGCUUGG	0.425
GAAACAC	-0.213
AGUACCA	-0.133
GGUGGGC	3.19

Sequence	RNAcompete 7-mer binding Z-score
UGUGCCU	-0.446
GUUUAUA	-0.508
GCGCCUG	-0.398
CCAGGCA	-0.195
GGCCGUG	0.599
UUUGUUG	-0.242
CCCAAGG	-0.253
UUUAUGG	0.075
CCGCGUU	-0.817
CGAAGCG	0.782
GUGGCAU	0.887
GUCACGC	-0.315
AAUAAGG	1.52
GACGGUA	1.24
GCUCGUU	-0.577
CUUCAUG	-0.814
GAUCAAA	-0.275
GACAGGA	2.33
CGCUAGA	-0.486
AGUCCAA	-0.464
AUUCUGC	-0.748
GAUAUUU	-0.464
UCUAUUA	-0.686
GCGUAGA	0.403

Sequence	RNAcompete 7-mer binding Z-score
GUCCAGC	-0.486
ACCGUGC	-0.464
ACUCAAU	-0.65
GUUCAUA	-0.471
CGUGAUA	-0.0853
UAGUGAG	0.756
UACAAUC	-0.471
UUGCCCC	-0.624
UUCAAUG	0.0313
GCACCCG	-0.602
ACGUACA	-0.103
CGAAUUG	-0.00877
AUGUUGC	-0.391
ACGAAGU	0.0604
GAGGCCG	0.166
UGGGGCA	3.52
UAAACCA	-0.151
AUGCUUU	-0.85
